The values below come from a collection of fitness landscapes (doi:10.1126/science.1257360).

B1: PhoQ; a variant is named by its letters at X, in order, P23837 (parent)
chain: MKKLLRLFFPLSLRVRFLLATAAVVLVLSLAYGMVALIGYSVSFDKTTFRLLRGESNLFYTLAKWENNKLHVELPENIDKQSPTMTLIYDENGQLLWAQRDVPWLMKMIQPDWLKSNGFHEIEADVNDTSLLLSGDHSIQQQLQEVREDDDDAEMTHSVAVNVYPATSRMPKLTIVVVDTIPVELKSSYMVWSWFIYVLSANLLLVIPLLWVAAWWSLRPIEALAKEVRELEEHNRELLNPATTRELTSLVRNLNRLLKSERERYDKYRTTLTDLTHSLKTPLXXLQXXLRSLRSEKMSVSDAEPVMLEQISRISQQIGYYLHRASMRGGTLLSRELHPVAPLLDNLTSALNKVYQRKGVNISLDISPEISFVGEQNDFVEVMGNVLDNACKYCLEFVEISARQTDEHLYIVVEDDGPGIPLSKREVIFDRGQRVDTLRPGQGVGLAVAREITEQYEGKIVAGESMLGGARMEVIFGRQHSAPKDE

This is one part of the list.

Variants of B1 are the subject of this assay. The assay is described as follows: enrichment ratio after two sorts for PhoP signalling (ratio (wild type AVST 3.29)); higher = more functional. Conditions: with PhoP (E. coli).
Turning to FDQF, the enrichment ratio is ≤ 0.25.

As to TLPG, the enrichment ratio is ≤ 0.25.

As for HSSG, the enrichment ratio was ≤ 0.25.

In the case of KDVT, the enrichment ratio was ≤ 0.25.

As to DCSA, the enrichment ratio is ≤ 0.25.

Take LYIF: the enrichment ratio is ≤ 0.25.

As for SHRG, the enrichment ratio is ≤ 0.25.

Take LGCP: the enrichment ratio is ≤ 0.25.

FWYY: the enrichment ratio is ≤ 0.25.

NTVN: the enrichment ratio was ≤ 0.25.

For GHVK, the enrichment ratio was ≤ 0.25.

For SQIF, the enrichment ratio was 10.7.

Regarding EFSM, the enrichment ratio is ≤ 0.25.

Consider PNVI, for which the enrichment ratio is ≤ 0.25.

Take NASM: the enrichment ratio is ≤ 0.25.

Regarding PFMP, the enrichment ratio is ≤ 0.25.

Take RIPH: the enrichment ratio is ≤ 0.25.

In the case of SNYD, the enrichment ratio is ≤ 0.25.

Take TDAA: the enrichment ratio was determined as 5.51.

Regarding VICC, the enrichment ratio is ≤ 0.25.

With KLMS, the enrichment ratio was ≤ 0.25.

Turning to WEPR, the enrichment ratio is ≤ 0.25.

Regarding VVMF, the enrichment ratio was ≤ 0.25.

Consider EDAW, for which the enrichment ratio is ≤ 0.25.

FRAL: the enrichment ratio is ≤ 0.25.

Regarding LYMS, the enrichment ratio was ≤ 0.25.

For the variant EFIW, the enrichment ratio was ≤ 0.25.

Turning to AIAL, the enrichment ratio was 10.6.

As to VNES, the enrichment ratio is ≤ 0.25.

As for WHPN, the enrichment ratio is ≤ 0.25.

As for RQGN, the enrichment ratio was ≤ 0.25.

On to YISL, for which the enrichment ratio turned out to be 0.261.

On to SNFL, for which the enrichment ratio was ≤ 0.25.

For the variant PTYP, the enrichment ratio was ≤ 0.25.

Consider QMKV, for which the enrichment ratio is ≤ 0.25.

EATF: the enrichment ratio was ≤ 0.25.

In the case of LQHM, the enrichment ratio is ≤ 0.25.

On to WTWF, for which the enrichment ratio was ≤ 0.25.

On to FRCG, for which the enrichment ratio is ≤ 0.25.

PHMQ: the enrichment ratio is ≤ 0.25.

Consider QDKG, for which the enrichment ratio is ≤ 0.25.

With ISRD, the enrichment ratio was ≤ 0.25.

With MMRE, the enrichment ratio was ≤ 0.25.

Take YGTL: the enrichment ratio was 1.06.

For SGHV, the enrichment ratio was ≤ 0.25.

On to MRRA, for which the enrichment ratio was ≤ 0.25.

Take VELG: the enrichment ratio came to 7.87.

With VGAV, the enrichment ratio was 2.51.

Take KEQF: the enrichment ratio is ≤ 0.25.

As for RLFT, the enrichment ratio is ≤ 0.25.

MTYC: the enrichment ratio is ≤ 0.25.

For the variant NIVV, the enrichment ratio is ≤ 0.25.

For the variant VVWH, the enrichment ratio is ≤ 0.25.

Regarding AFEG, the enrichment ratio is ≤ 0.25.

As for FSWD, the enrichment ratio is ≤ 0.25.

On to VYQF, for which the enrichment ratio is ≤ 0.25.

On to SKIF, for which the enrichment ratio is 2.73.

On to ESPA, for which the enrichment ratio is ≤ 0.25.

In the case of WVNR, the enrichment ratio was ≤ 0.25.

In the case of KPPG, the enrichment ratio is ≤ 0.25.

Consider QGFR, for which the enrichment ratio was ≤ 0.25.

Consider RHNH, for which the enrichment ratio was ≤ 0.25.

WWPL: the enrichment ratio is ≤ 0.25.

As for EYLD, the enrichment ratio is ≤ 0.25.

Regarding LPGV, the enrichment ratio is ≤ 0.25.

Take MTIY: the enrichment ratio was ≤ 0.25.

Regarding WTHF, the enrichment ratio was ≤ 0.25.

Take PVLV: the enrichment ratio was ≤ 0.25.

In the case of KHFK, the enrichment ratio was ≤ 0.25.

For HAYG, the enrichment ratio is ≤ 0.25.

As for AIFI, the enrichment ratio is ≤ 0.25.

For the variant ERNN, the enrichment ratio was ≤ 0.25.

Turning to NFYN, the enrichment ratio was ≤ 0.25.

For the variant FYDH, the enrichment ratio was ≤ 0.25.

In the case of LQRE, the enrichment ratio is ≤ 0.25.

Turning to HNSH, the enrichment ratio was ≤ 0.25.

Take DSWA: the enrichment ratio was ≤ 0.25.

FFVK: the enrichment ratio is ≤ 0.25.

Regarding EKYG, the enrichment ratio is ≤ 0.25.

Turning to TMTW, the enrichment ratio is ≤ 0.25.

As for SLDA, the enrichment ratio is ≤ 0.25.

Regarding DQII, the enrichment ratio is ≤ 0.25.

On to DMCW, for which the enrichment ratio is ≤ 0.25.

As for HFRR, the enrichment ratio was ≤ 0.25.
